Residue numbers refer to the chain shown, from its start. Results are given in words; binding and its absence hold for the method and conditions named. For part of these data: In cells and extracts the contact can be indirect. Some binding calls cover weakened binding; strength is not graded here. For part of these data: Sequences can lack the tags named with a protein. Blank lines part the entries; values can stand above or below the binder they belong to.
What was measured:
GST-NEMO fusion protein = GST-NEMO fusion protein (UniProt Q9Y6K9); experiment: pull-down; GST-NEMO fusion protein incubated with E. coli extracts containing WT or mutant His-KRT32; glutathione-agarose beads; Western blot; only the target purified
[1] = target: NEMO (endogenous) (human (endogenous in primary keratinocytes, Ker-CT and skin)) (UniProt Q9Y6K9); experiment: proximity ligation; Duolink PLA on fixed Ker-CT cells overexpressing Flag-tagged KRT32 wildtype or mutations; anti-Flag and anti-NEMO; foci per cell counted
[2] = target: NEMO (endogenous) (human (endogenous in primary keratinocytes, Ker-CT and skin)), Q9Y6K9; experiment: proximity ligation; Duolink PLA of IKKα with NEMO on fixed Ker-CT cells overexpressing KRT32 wildtype or mutations; foci per cell counted; conditions: remark: other sources report otherwise
GST-KRT32 (human) = GST-KRT32 (human) (UniProt Q14532); experiment: pull-down; GST-KRT32 incubated 12 h with excess His-tagged NEMO, IKKα, IKKβ or IκBα, glutathione-Sepharose beads, Western blot with anti-GST and anti-His; both purified

The chains behind the UniProt entries cited, without tags or fusion partners.
UniProt Q9Y6K9: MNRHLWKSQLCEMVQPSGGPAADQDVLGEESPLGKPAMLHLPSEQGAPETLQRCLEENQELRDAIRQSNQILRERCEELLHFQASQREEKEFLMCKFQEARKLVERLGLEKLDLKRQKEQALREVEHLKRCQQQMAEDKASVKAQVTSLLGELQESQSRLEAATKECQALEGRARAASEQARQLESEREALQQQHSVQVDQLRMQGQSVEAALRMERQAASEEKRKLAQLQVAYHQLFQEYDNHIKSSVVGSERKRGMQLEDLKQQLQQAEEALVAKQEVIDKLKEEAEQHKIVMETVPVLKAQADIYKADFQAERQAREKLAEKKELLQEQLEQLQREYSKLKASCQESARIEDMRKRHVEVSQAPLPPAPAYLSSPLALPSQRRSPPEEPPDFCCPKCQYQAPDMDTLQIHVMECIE

B1: His-KRT32 p.Arg203Cys (protein, UniProt Q14532 1-448)
chain: MTSSCCVTNNLQASLKSCPRPASVCSSGVNCRPELCLGYVCQPMACLPSVCLPTTFRPASCLSKTYLSSSCQAASGISGSMGPGSWYSEGAFNGNEKETMQFLNDRLASYLTRVRQLEQENAELESRIQEASHSQVLTMTPDYQSHFRTIEELQQKILCTKAENARMVVNIDNAKLAADDFRAKYEAELAMRQLVEADINGLCRILDDLTLCKADLEAQVESLKEELMCLKKNHEEEVGSLRCQLGDRLNIEVDAAPPVDLTRVLEEMRCQYEAMVEANRRDVEEWFNMQMEELNQQVATSSEQLQNYQSDIIDLRRTVNTLEIELQAQHSLRDSLENTLTESEARYSSQLAQMQCMITNVEAQLAEIRADLERQNQEYQVLLDVRARLEGEINTYRSLLENEDCKLPCNPCSTPSCTTCVPSPCVPRTVCVPRTVGMPCSPCPQGRY
- binding (GST-NEMO fusion protein): binds

B2: Flag-tagged KRT32 p.Arg115Gln (protein, UniProt Q14532 1-448)
chain: B1 chain with R115Q, C203R
- binding [1]: binds

B3: Flag-tagged KRT32 p.Cys229Arg (protein, UniProt Q14532 1-448)
chain: B1 chain with C203R, C229R
- binding [1]: binds

B5: Flag-tagged KRT32 p.Glu303Lys (protein, UniProt Q14532 1-448)
chain: B1 chain with C203R, E303K
- binding [1]: binds

B6: His-KRT32 p.Arg115Gln (protein, UniProt Q14532 1-448)
chain: B1 chain with R115Q, C203R
- binding (GST-NEMO fusion protein): binds

B8: Flag-tagged KRT32 p.Ile313Val (protein, UniProt Q14532 1-448)
chain: B1 chain with C203R, I313V
- binding [1]: binds

B10: Flag-tagged KRT32 p.Arg203Cys (protein, UniProt Q14532 1-448)
chain: B1 chain
- binding [1]: binds

B12: His-IKKβ (protein, UniProt O14920 1-756)
chain: MSWSPSLTTQTCGAWEMKERLGTGGFGNVIRWHNQETGEQIAIKQCRQELSPRNRERWCLEIQIMRRLTHPNVVAARDVPEGMQNLAPNDLPLLAMEYCQGGDLRKYLNQFENCCGLREGAILTLLSDIASALRYLHENRIIHRDLKPENIVLQQGEQRLIHKIIDLGYAKELDQGSLCTSFVGTLQYLAPELLEQQKYTVTVDYWSFGTLAFECITGFRPFLPNWQPVQWHSKVRQKSEVDIVVSEDLNGTVKFSSSLPYPNNLNSVLAERLEKWLQLMLMWHPRQRGTDPTYGPNGCFKALDDILNLKLVHILNMVTGTIHTYPVTEDESLQSLKARIQQDTGIPEEDQELLQEAGLALIPDKPATQCISDGKLNEGHTLDMDLVFLFDNSKITYETQISPRPQPESVSCILQEPKRNLAFFQLRKVWGQVWHSIQTLKEDCNRLQQGQRAAMMNLLRNNSCLSKMKNSMASMSQQLKAKLDFFKTSIQIDLEKYSEQTEFGITSDKLLLAWREMEQAVELCGRENEVKLLVERMMALQTDIVDLQRSPMGRKQGGTLDDLEEQARELYRRLREKPRDQRTEGDSQEMVRLLLQAIQSFEKKVRVIYTQLSKTVVCKQKALELLPKVEEVVSLMNEDEKTVVRLQEKRQKELWNLLKIACSKVRGPVSGSPDSMNASRLSQPGQLMSQPSTASNSLPEPAKKSEELVAEAHNLCTLLENAIQDTVREQDQSFTALDWSWLQTEEEEHSCLEQAS
- binding (GST-KRT32 (human)): no binding

The remaining lines, values ahead:

- binding (GST-NEMO fusion protein): binds
B4: His-KRT32 p.Ile313Val (protein, UniProt Q14532 1-448)
chain: B1 chain with C203R, I313V

- binding (GST-NEMO fusion protein): binds
B7: His-KRT32 p.Glu303Lys (protein, UniProt Q14532 1-448)
chain: B1 chain with C203R, E303K

- binding (GST-NEMO fusion protein): binds
B9: His-KRT32 p.Cys229Arg (protein, UniProt Q14532 1-448)
chain: B1 chain with C203R, C229R

- binding [2]: binds
B11: IKKα (endogenous), O15111 1-745 (protein)
chain: MERPPGLRPGAGGPWEMRERLGTGGFGNVCLYQHRELDLKIAIKSCRLELSTKNRERWCHEIQIMKKLNHANVVKACDVPEELNILIHDVPLLAMEYCSGGDLRKLLNKPENCCGLKESQILSLLSDIGSGIRYLHENKIIHRDLKPENIVLQDVGGKIIHKIIDLGYAKDVDQGSLCTSFVGTLQYLAPELFENKPYTATVDYWSFGTMVFECIAGYRPFLHHLQPFTWHEKIKKKDPKCIFACEEMSGEVRFSSHLPQPNSLCSLVVEPMENWLQLMLNWDPQQRGGPVDLTLKQPRCFVLMDHILNLKIVHILNMTSAKIISFLLPPDESLHSLQSRIERETGINTGSQELLSETGISLDPRKPASQCVLDGVRGCDSYMVYLFDKSKTVYEGPFASRSLSDCVNYIVQDSKIQLPIIQLRKVWAEAVHYVSGLKEDYSRLFQGQRAAMLSLLRYNANLTKMKNTLISASQQLKAKLEFFHKSIQLDLERYSEQMTYGISSEKMLKAWKEMEEKAIHYAEVGVIGYLEDQIMSLHAEIMELQKSPYGRRQGDLMESLEQRAIDLYKQLKHRPSDHSYSDSTEMVKIIVHTVQSQDRVLKELFGHLSKLLGCKQKIIDLLPKVEVALSNIKEADNTVMFMQGKRQKEIWHLLKIACTQSSARSLVGSSLEGAVTPQTSAWLPPTSAEHDHSLSCVVTPQDGETSAQMIEENLNCLGHLSTIIHEANEEQGNSMMNLDWSWLTE
